Like-named read-outs stand apart in the source and are kept apart here.
B1: 39A11/57G8-IL15 (other)
heavy 1: EVQLLESGGGLVQPGGSLRLSCAASGFTFSSYGMHWVRQAPGKGLEWVASISSSSGYIYYADSVKGRFTISRDNSKNTLYLQMNSLRAEDTAVYYCARASSGMDVWGQGTTVTVSS[letters of human IgG1 constant region with changes not shown]
heavy 2: EVQLLESGGGLVQPGGSLRLSCAASGFTFSSYGMHWVRQAPGKGLEWVASISSSSGYIYYADSVKGRFTISRDNSKNTLYLQMNSLRAEDTAVYYCARASSGMDVWGQGTTVTVSSASTKGPSVFPLAPSSKSTSGGTAALGCLVKDYFPEPVTVSWNSGALTSGVHTFPAVLQSSGLYSLSSVVTVPSSSLGTQTYICNVNHKPSNTKVDKKV[letters of human IgG1 Fc with changes not shown]CPPPMSVEHADIWVKSYSLYSRERYICNSGFKRKAGTSSLTECVLNKATNVAHWTTPSLKCIRDPALVHQRPAPPSGGSGGGGSGGGSGGGGSLQ[letters of about 120 residues not shown]
light: DIQMTQSPSSLSASVGDRVTITCRASQSIRSYLNWYQQKPGKAPKLLIYYASSLQSGVPSRFSGSGSGTDFTLTISSLQPEDFATYYCQQYYSTPLTFGQGTKVEIKRTVAAPSVFIFPPSDEQLKSGTASVVCLLNNFYPREAKVQWKVDNALQSGNSQESVTEQDSKDSTYSLSSTLTLSKADYEKHKVYACEVTHQGLSSPVTKSFNRGEC
notes: Antibody-cytokine fusion: heterodimeric IgG1 (knobs-into-holes), HC2 carries C-terminal IL-15Ralpha sushi domain-linker-IL-15 N65S
B2: (+) Ab1/IL15 (other)
heavy 1: QLQLQESGPGLVKPSETLSLTCTVSGGSIKSGSYYWGWIRQPPGKGLEWIGNIYYSGSTYYNPSLRSRVTISVDTSKNQFSLKLSSVTAADTAVYYCAREGSYPNQFDPWGQGTLVTVSS[letters of human IgG1 constant region with changes not shown]
heavy 2: QLQLQESGPGLVKPSETLSLTCTVSGGSIKSGSYYWGWIRQPPGKGLEWIGNIYYSGSTYYNPSLRSRVTISVDTSKNQFSLKLSSVTAADTAVYYCAREGSYPNQFDPWGQGTLVTVSSASTKGPSVFPLAPSSKSTSGGTAALGCLVKDYFPEPVTVSWNSGALTSGVHTFPAVLQSSGLYSLSSVVTVPSSSLGTQTYICNVNHKPSNTKVDKKV[letters of human IgG1 Fc with changes not shown]CPPPMSVEHADIWVKSYSLYSRERYICNSGFKRKAGTSSLTECVLNKATNVAHWTTPSLKCIRDPALVHQRPAPPSGGSGGGGSGGGSGGGGSLQ[letters of about 120 residues not shown]
light: EIVMTQSPATLSVSPGERATLSCRASQSVSSNLAWYQQKPGQAPRLLIYGASTRATGIPARFSGSGSGTEFTLTISSLQSEDFAVYYCQQYHSFPFTFGGGTKVEIKRTVAAPSVFIFPPSDEQLKSGTASVVCLLNNFYPREAKVQWKVDNALQSGNSQESVTEQDSKDSTYSLSSTLTLSKADYEKHKVYACEVTHQGLSSPVTKSFNRGEC
notes: Antibody-cytokine fusion: heterodimeric IgG1, HC1 with S354C/T366W, HC2 with Y349C/T366S/L368A/Y407V and C-terminal IL-15Ralpha sushi domain-linker-IL-15 N65S; also called (+) Ab/IL15; (+)Abl/IL15

Legend:
human B7-H4-his [1] = molecular target: T1, human B7-H4-his (human, UniProt Q7Z7D3 25-259); test: ELISA on coated hB7-H4-his
T1 construct: also called hB7-H4-his; hB7-H4 his; not shown: his tag
T1 sequence: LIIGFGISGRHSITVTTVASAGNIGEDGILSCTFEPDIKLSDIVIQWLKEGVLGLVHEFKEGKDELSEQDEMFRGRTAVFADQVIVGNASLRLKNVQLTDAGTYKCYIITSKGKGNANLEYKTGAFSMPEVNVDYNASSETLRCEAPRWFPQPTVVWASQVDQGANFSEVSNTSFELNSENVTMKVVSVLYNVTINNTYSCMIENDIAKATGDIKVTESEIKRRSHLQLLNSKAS
Protocol: (§1) About 1-2 μg/ml of human or mouse B7-H4-Fc (or his-tagged) was immobilized on ELISA plates (Immuno 2HB, Thermo scientific, cat #3455) at 4° C. overnight. After blocking the plates with 3% PBS+milk, serial diluted antibodies were added to the blocked plates and incubated at RT for 1-1.5 h. After washing the plates with PBS-T (0.05%), horse radish peroxidase (HRP)-conjugated antibody targeting the hFab was added to the plate. Signals were developed by adding 3,3′,5,5′-Tetramethylbenzidine (TMB (followed 1N of H₂SO₄ to stop the reaction. The OD at 450 nm was read by ELISA plate reader (Infinite M1000 from TECAN). GraphPad from Prism was used to plot OD450 vs. antibody concentration curve and to calculate the EC50 values.

human B7-H4-his [2] = molecular target: T1, human B7-H4-his; test: SPR (Biacore)
Protocol: (§2) Surface plasmon resonance experiments were performed using a Biacore T200 instrument equipped with CM5 sensor chips. The system was equilibrated in running buffer HBS-EP pH 7.4. The ligands were immobilized using amine-coupling chemistry. The surfaces of flow cells one through four were activated for 5 min using an amine coupling kit at a flow rate of […]. The ligands (human B7-H4-Fc, human B7-H4-hism and mouse B7-H4-Fc; at a concentration of 5 μg/ml in 10 mM sodium acetate, pH 5.0) were immobilized at a density of 50-100 RU on flow cell 2, 3, 4 respectively. Flow cell 1 was left blank to serve as a reference surface. All flow cell surfaces were blocked with a 5 min injection of 1 M ethanolamine, pH 8.0. To collect kinetic binding data, the respective analyte (diluted in 1×HBS-EP buffer, pH 7.4) was injected over the four flow cells at concentrations of 100 nM to 0.1 nM at a flow rate of […] and at a temperature of 25° C. The protein complex was allowed to associate and dissociate for 180 seconds and 1000 or 1200 seconds, respectively. The surfaces were regenerated with a 30 second injection of 1.5 M NaCl/0.05 M NaOH. The data were fit to a simple 1:1 interaction model using the Langmuir fit option available within the Biaevaluaton software

mouse B7-H4-Fc [3] = molecular target: T2, mouse B7-H4-Fc (mouse; human); test: SPR (Biacore)
T2 construct: also called mB7-H4-Fc; mB7-H4-hFc
Protocol: as §2

human B7-H4-Fc [4] = molecular target: T3, human B7-H4-Fc (human); test: SPR (Biacore)
T3 construct: also called hB7-H4-Fc; hB7-H4 Fc
Protocol: as §2

[5] = molecular target: T4, IgV domain of mouse B7-H4-Fc (mouse; human); test: ELISA on coated IgV domain of mB7-H4
T4 construct: also called mB7-H4 IgV domain

mouse B7-H4-his [6] = molecular target: T5, mouse B7-H4-his (mouse, UniProt Q7TSP5 25-257); test: ELISA on coated mB7-H4-his
T5 construct: also called mB7-H4-his; mB7-H4-His; not shown: his tag
T5 sequence: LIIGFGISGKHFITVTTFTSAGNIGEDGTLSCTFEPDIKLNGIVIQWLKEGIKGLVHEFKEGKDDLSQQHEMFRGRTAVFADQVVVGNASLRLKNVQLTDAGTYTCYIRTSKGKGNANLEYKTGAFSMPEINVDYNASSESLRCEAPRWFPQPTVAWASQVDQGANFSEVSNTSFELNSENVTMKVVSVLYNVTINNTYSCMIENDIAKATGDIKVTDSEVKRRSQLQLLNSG
Protocol: as §1

[7] = molecular target: T6, human B7-H4 expressed on cells (human, UniProt Q7Z7D3 25-282); test: flow cytometry on SK-BR-3 cells
T6 construct: Transfected CHO cells or tumor cell lines that carry hB7-H4; also called cellular hB7-H4
T6 sequence: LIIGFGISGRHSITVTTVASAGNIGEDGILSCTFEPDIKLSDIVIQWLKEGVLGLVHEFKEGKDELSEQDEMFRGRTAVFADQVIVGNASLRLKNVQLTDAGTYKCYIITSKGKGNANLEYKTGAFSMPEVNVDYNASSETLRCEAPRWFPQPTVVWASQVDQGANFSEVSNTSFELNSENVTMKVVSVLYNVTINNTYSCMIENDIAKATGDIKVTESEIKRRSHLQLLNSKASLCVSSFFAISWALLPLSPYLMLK
Protocol: (§3) Cells were harvested, washed once, and then re-suspended to the concentration of 1×10⁶ cells/ml in ice cold FACS Buffer. 25 μl of cell suspension was added to each well of a 96-well round-bottom microliter plate. Serially diluted antibodies or fusion proteins were added to each well and incubated for 1 hour at 4° C. Cells were washed three times by centrifugation at 1500 rpm for 5 minutes, and then stained with secondary antibody (1:200 dilution) for 30 min at 4° C. in the dark. Cells were washed once, re-suspended in 100 μl PBS buffer and then analyzed using Guava Flow Cytometry EasyCyte system.

[8] = molecular target: T7, IgV domain of human B7-H4-Fc (human); test: ELISA on coated IgV domain of hB7-H4
T7 construct: also called hB7-H4 IgV domain

[9] = molecular target: T6, human B7-H4 expressed on cells; test: flow cytometry on SK-BR-3 cells; remark: listed apart in the source
Protocol: as §3

mouse B7-H4-his [10] = molecular target: T5, mouse B7-H4-his; test: ELISA on coated mouse B7-H4his
Protocol: as §1

[11] = molecular target: T6, human B7-H4 expressed on cells; test: flow cytometry, MX-1 cells
Protocol: as §3

human B7-H4-Fc [12] = molecular target: T3, human B7-H4-Fc; test: ELISA on coated human B7-H4Fc
T3 sequence (chain, as listed by the source): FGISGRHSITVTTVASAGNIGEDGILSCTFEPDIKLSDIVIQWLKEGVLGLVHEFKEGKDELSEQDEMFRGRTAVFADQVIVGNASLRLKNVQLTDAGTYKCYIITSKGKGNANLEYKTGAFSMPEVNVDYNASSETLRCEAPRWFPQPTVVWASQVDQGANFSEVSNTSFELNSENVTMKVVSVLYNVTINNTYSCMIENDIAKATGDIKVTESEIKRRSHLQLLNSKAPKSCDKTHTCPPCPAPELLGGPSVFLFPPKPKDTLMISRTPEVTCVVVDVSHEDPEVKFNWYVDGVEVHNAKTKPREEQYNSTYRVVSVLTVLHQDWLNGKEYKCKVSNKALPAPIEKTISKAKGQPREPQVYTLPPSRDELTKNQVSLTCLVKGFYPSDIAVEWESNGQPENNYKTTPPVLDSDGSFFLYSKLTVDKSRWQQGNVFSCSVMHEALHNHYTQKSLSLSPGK
Protocol: as §1

mouse B7-H4-Fc [13] = molecular target: T2, mouse B7-H4-Fc; test: ELISA on coated mouse B7-H4Fc
T2 sequence (chain, as listed by the source): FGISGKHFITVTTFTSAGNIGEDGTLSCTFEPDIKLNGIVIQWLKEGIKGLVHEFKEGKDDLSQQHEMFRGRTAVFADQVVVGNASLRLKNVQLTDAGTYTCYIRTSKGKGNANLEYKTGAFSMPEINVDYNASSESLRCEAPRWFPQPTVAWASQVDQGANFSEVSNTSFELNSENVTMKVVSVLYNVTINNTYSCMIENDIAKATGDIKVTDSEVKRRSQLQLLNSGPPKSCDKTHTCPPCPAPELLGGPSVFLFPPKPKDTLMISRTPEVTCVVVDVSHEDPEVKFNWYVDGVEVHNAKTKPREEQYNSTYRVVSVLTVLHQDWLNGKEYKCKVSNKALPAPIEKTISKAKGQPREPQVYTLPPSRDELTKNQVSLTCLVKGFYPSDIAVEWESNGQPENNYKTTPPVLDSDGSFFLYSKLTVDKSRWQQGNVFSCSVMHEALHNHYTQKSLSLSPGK
Protocol: as §1

[14] = molecular target: T6, human B7-H4 expressed on cells; test: flow cytometry, MDA-MB-468 cells
Protocol: as §3

human B7-H4-Fc [15] = molecular target: T3, human B7-H4-Fc; test: ELISA on coated hB7-H4-Fc
Protocol: as §1

mouse B7-H4-his [16] = molecular target: T5, mouse B7-H4-his; test: ELISA on coated mB7-H4-his; remark: listed apart in the source
Protocol: as §1

human B7-H4-his [17] = molecular target: T1, human B7-H4-his; test: ELISA on coated hB7-H4-his; remark: listed apart in the source
Protocol: as §1

mouse B7-H4-Fc [18] = molecular target: T2, mouse B7-H4-Fc; test: ELISA on coated mB7-H4-Fc
Protocol: as §1

| Binder | EC50 (read off the curve) (human B7-H4-his [1]) | Kd (human B7-H4-his [2]) | Kd (mouse B7-H4-Fc [3]) | Kd (human B7-H4-Fc [4]) | EC50 (read off the curve) [5] | EC50 (read off the curve) (mouse B7-H4-his [6]) | EC50 (read off the curve) [7] | EC50 (read off the curve) [8] | EC50 (read off the curve) [9] | EC50 (read off the curve) (mouse B7-H4-his [10]) | EC50 [11] | EC50 (read off the curve) (human B7-H4-Fc [12]) | EC50 (read off the curve) (mouse B7-H4-Fc [13]) | EC50 [14] | EC50 (read off the curve) (human B7-H4-Fc [15]) | EC50 (read off the curve) (mouse B7-H4-his [16]) | EC50 (read off the curve) (human B7-H4-his [17]) | EC50 (read off the curve) (mouse B7-H4-Fc [18]) |
| --- | --- | --- | --- | --- | --- | --- | --- | --- | --- | --- | --- | --- | --- | --- | --- | --- | --- | --- |
| B1 | ~0.2 nM | 0.0454 nM | 0.107 nM | 0.219 nM | ~0.1 nM | ~0.2 nM | ~2 nM | ~0.2 nM | ~2 nM | ~0.3 nM | 24.8 nM | ~0.2 nM | ~0.2 nM | 29.6 nM |  |  |  |  |
| B2 | ~0.2 nM | 0.18 nM | 0.761 nM | 0.647 nM | ~0.4 nM | ~0.3 nM |  | ~0.3 nM |  |  |  |  |  |  | ~0.2 nM | ~0.4 nM | ~0.4 nM | ~0.2 nM |

Source: patent publication US20230312724A1 (KADMON, published 2023)
